US7728040B1, “Polyamine conjugates as selective NMDA inhibitors and anti-cancer drugs” (University of Central Florids Research Foundation, Inc., priority 2002, dated 2010)
Structures can show the parent of a compound that is named as a salt. Where two headings read alike, the source gives them in different places.

Experiments:
[1] = system: Mel-A (normal melanocyte) cells
B16 (melanoma) cells [2] = system: B16 (melanoma) cells
[3] = system: Mel-A (normal melanocyte) cells; assay: cells; conditions: read-out: IC50 Mel-A (normal melanocyte)
B16 (melanoma) cells [4] = assay: cells; conditions: Mus musculus, read-out: IC50 B16 (melanoma)

| Compound | IC50 ratio (35/8e) in Mel-A cells, worked example 44.3/16.47 ([1]; 24 h) | IC50 ratio (35/8e), fold higher cytotoxicity than 35 in Mel-A cells ([1]; mouse) | IC50 ratio (35/8e), fold higher cytotoxicity than control 35 in B-16 cells (B16 (melanoma) cells [2]) | IC50 ratio (35/8e) in B-16 cells, worked example 19.25/1.93 (B16 (melanoma) cells [2]; 24 h) | Mel-A/B16 IC50 ratio, worked example 6.49/0.62 (B16 (melanoma) cells [2]; 72 h values of Table 3) | IC50 ([3]; 24 h) | IC50 ([3]; 48 h) | IC50 ([3]; 72 h) | IC50 (B16 (melanoma) cells [4]; B16, 24 h) | IC50 (B16 (melanoma) cells [4]; B16, 48 h) | IC50 (B16 (melanoma) cells [4]; B16, 72 h) |
| --- | --- | --- | --- | --- | --- | --- | --- | --- | --- | --- | --- |
| Cl.Cl.Cl.NCCCCN(CCCCN)Cc1c2ccccc2cc2ccccc12 [Compound 8e, N-(4-Amino-butyl)-N-anthracen-9-ylmethyl-butane-1,4-diamine, trihydrochloride] | 2.7 | 2-4 fold | 10-32 fold | 10 | 10.5 | 16.5 µM | 8.27 µM | 6.49 µM | 1.93 µM | 1.1 µM | 0.62 µM |
| CCCCNCc1c2ccccc2cc2ccccc12 [Compound 35, N^1-Anthracen-9-ylmethyl-butylamine Monohydrochloride] |  |  |  |  |  |  |  | 15 µM | 19.2 µM |  | 20.4 µM |
